“And” between values parts separate entries of the source, which are not always exact repeats. Equal values may be shown once. The whole screen tested about 360,000 compounds, of which about 25,000 (6.9%) were called active. Inconclusive means that the source gave no clear call. Such entries were picked first, then a sample of the others. The call rests on the fitted dose curve; in most records, active means well fitted inhibition curve with a large enough effect; inconclusive means small, poorly fitted or top-dose-only effect; inactive means flat fitted curve, though single readings scatter. Potencies of inconclusive entries are doubtful fits and often do not repeat.
These molecules were tested against Luciferin 4-monooxygenase (Photinus pyralis) (UniProt P08659) (assay: qHTS profiling assay for firefly luciferase inhibitor/activator using purifed enzyme and Km concentrations of substrates (counterscreen for miR-21 project)). Conditions: purified FLuc, luminescence inhibition; series mostly up to 57.5 µM.
Sequence of UniProt P08659 (P08659 whole entry, looked up): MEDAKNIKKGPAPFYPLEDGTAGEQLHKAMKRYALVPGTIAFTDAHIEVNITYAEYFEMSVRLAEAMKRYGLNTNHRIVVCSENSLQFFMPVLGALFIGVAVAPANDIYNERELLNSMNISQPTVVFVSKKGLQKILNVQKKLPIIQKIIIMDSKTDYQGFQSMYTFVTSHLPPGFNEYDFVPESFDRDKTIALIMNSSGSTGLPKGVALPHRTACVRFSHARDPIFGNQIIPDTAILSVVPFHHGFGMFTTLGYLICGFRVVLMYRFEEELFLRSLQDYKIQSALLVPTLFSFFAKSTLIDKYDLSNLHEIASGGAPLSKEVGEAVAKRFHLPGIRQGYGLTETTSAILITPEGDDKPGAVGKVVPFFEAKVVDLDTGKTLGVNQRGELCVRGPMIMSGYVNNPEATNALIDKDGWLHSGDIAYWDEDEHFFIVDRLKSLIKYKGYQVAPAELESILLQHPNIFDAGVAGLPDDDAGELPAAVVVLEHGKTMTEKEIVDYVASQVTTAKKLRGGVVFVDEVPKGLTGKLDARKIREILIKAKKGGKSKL
Procedure, shortened: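 Biochemical qHTS of compounds, final roughly 60 µM downward over six points, against 10 nM purified firefly luciferase using Km concentrations of substrates (10 uM D-luciferin, 10 uM ATP) in Tris acetate pH 7.5 buffer; luminescence output.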
Further: nearly all actives have a fitted effect of over 55% in size.
Potency means the concentration at half of the fitted maximal effect; tags describe the fitted curve by direction and shape.

Row | Structure (SMILES) | Potency
1 | COc1ccc(Br)c(OC)c1C(=O)NC(=O)Nc1nc(C)cc(C)n1 | inactive
2 | S=C(NCc1ccco1)Nc1ccc(Cl)c(Cl)c1 | inconclusive: 23.9 µM [inhibitor, partial curve, poor fit]
3 | O=Cc1ccc(Oc2nc(Cl)ncc2F)cc1 | inactive
4 | COc1ccc(-c2cn3c(C)c(C(=O)N4CCN(c5ccc(F)cc5)CC4)sc3n2)cc1 | inconclusive: 21.3 µM [inhibitor, partial curve]
5 | O=C1CC(c2cccs2)Sc2nc3ccccc3n21 (stereo unspecified) | active: 3.38 µM
6 | Cc1cc(F)ccc1NC(=O)c1csc2c1CCC(C)C2 (stereo unspecified) | inconclusive: 2.39 µM [inhibitor, full curve, poor fit]
7 | Cc1c(OC(C)C(=O)NCC(O)c2ccccc2)ccc2c3c(c(=O)oc12)CCCC3 (stereo unspecified) | inactive
8 | CC(C)OC(=O)CSc1nnc(-c2ccc(Cl)cc2Cl)o1 | active: 10.7 µM
9 | Clc1ccc(Cc2nnc(-c3ccccc3Br)o2)cc1 | inconclusive: 19 µM [inhibitor, partial curve]
10 | Cc1nc2c(C(=O)N3CCCCC3)cnn2c(C)c1Cc1ccccc1F | inconclusive: 19 µM [inhibitor, partial curve]
11 | CCCCN(CCCNC(=O)CN1C(=O)COc2ccc(S(=O)(=O)N3CCC(C)CC3)cc21)Cc1ccccc1 | inactive
12 | C/C(=N\NC(=O)c1ccccc1)c1ccc(N2CCCCC2)cc1 | inconclusive: 2.69 µM [inhibitor, full curve]
13 | O=C(Cn1c(=O)n(Cc2ccco2)c(=O)c2c3c(sc21)CCCCC3)c1ccccc1 | inconclusive: 37.9 µM [inhibitor, partial curve, poor fit]
14 | Cn1cc(SCC(=O)N2CCOCC2)c2ccccc21 | inactive
15 | CC(=O)c1cccc(OCc2cc(C(=O)N(C)Cc3ccc(C)o3)no2)c1 | inconclusive: 16.9 µM [inhibitor, partial curve]
16 | N#Cc1c(-c2ccccc2)nc(SCC(=O)Nc2nnc(C(F)(F)F)s2)[nH]c1=O | inconclusive: 13.5 µM [inhibitor, partial curve]
17 | COc1cc(/C=C/C(C)=O)cc(OC)c1OC | inactive
18 | Cc1nc2ccc(NC(=O)c3ccc([N+](=O)[O-])cc3)cc2[nH]1 | inconclusive: 19 µM [inhibitor, partial curve, poor fit]
19 | CCSC1=C(C#N)C(c2cccc(O)c2)CC(=O)N1 (stereo unspecified) | inconclusive: 23.9 µM [inhibitor, partial curve]
20 | O=C1CSc2ccc(C(=O)Nc3cccc(S(=O)(=O)Nc4ccc(Br)cc4)c3)cc2N1 | inconclusive: 37.9 µM [inhibitor, single point]
21 | O=C(CSc1ccccn1)Nc1ccccc1F | inconclusive: 23.9 µM [inhibitor, single point]
22 | CC(=O)CCC(=O)c1ccc2ccccc2c1 | active: 26.9 µM
23 | CCOc1cc(CNC(=O)c2cc(-c3ccccc3)n[nH]2)cc(OCC)c1OCC | inactive
24 | COc1ccc(CCNC(=O)c2ccc3c(c2)CCN3S(=O)(=O)c2ccccc2)cc1 | inactive
25 | O=C(CN1C(=O)C2(SCC(=O)N2c2ccc(F)c(F)c2)c2ccccc21)NCCc1ccccc1 (stereo unspecified) | inactive
26 | Cc1ccc(SCCC(=O)N(C)C)cc1 | inconclusive: 23.9 µM [inhibitor, partial curve, poor fit]

Row | Structure (SMILES) | Potency
27 | COc1cc(C)c(C)cc1S(=O)(=O)N1CCCc2ccccc21 | inactive
28 | COc1ccc(N2CCN(C(=O)c3cc4c(=O)n(Cc5cccnc5)ccc4nc3C)CC2)cc1 | inactive
29 | COc1ccc(CCNC(=O)c2cnn(-c3ccc(F)cc3)c2C2CCN(C(=O)OC(C)(C)C)CC2)cc1OC | inactive
30 | CCOc1cc(C(c2c(C)[nH]n(-c3ccccc3)c2=O)c2c(C)[nH]n(-c3ccccc3)c2=O)ccc1O | active: 12 µM
31 | Cc1ccc(-n2[nH]c(C)c(/C=N/n3c(C)nc4ccccc4c3=O)c2=O)cc1 | inconclusive: 26.9 µM [inhibitor, single point]
32 | C/C(=N\NC(=O)Cc1csc(N2CCOCC2)n1)c1ccc(Cl)c(Cl)c1 | inconclusive: 26.9 µM [inhibitor, partial curve, poor fit]
33 | [O-][n+]1c2ccccc2[n+]([O-])c2cc(O)ccc21 | inconclusive: 21.3 µM [inhibitor, single point]
34 | Clc1ccc(-c2csc(N3CCc4ccccc4C3)n2)cc1 | inconclusive: 37.9 µM [inhibitor, single point]
35 | Cc1ccc(OCC(=O)N/N=C2\CCOc3c(C)cccc32)cc1 | inconclusive: 19 µM [inhibitor, partial curve]
36 | COc1ccccc1C(=O)NC(CCSC)C(=O)NNC(=O)c1ccccc1O (stereo unspecified) | inconclusive: 37.9 µM [inhibitor, single point]
37 | CN(Cc1ccccc1)C(=O)COc1ccc(C(C)(C)C)cc1 | inconclusive: 19 µM [inhibitor, partial curve, poor fit]
38 | Clc1ccccc1Sc1ccc(-c2ccccn2)s1 | inconclusive: 37.9 µM [inhibitor, partial curve, poor fit]
39 | C/C(N)=C(/C#N)C(=O)CSc1nnc(Nc2cccc(C)c2)s1 | active: 5.36 µM
40 | Clc1nc2ccccc2cc1/C=N/Nc1nc2ccccc2[nH]1 | active: 0.19 µM
41 | CCOc1cc(/C=N/NC(=O)c2nn(C)cc2Br)ccc1OCc1ccccc1Cl | inconclusive: 10.7 µM [inhibitor, partial curve]
42 | COc1cccc(N2CCN(C(=O)c3cnc4c(-c5ccccc5)c(C)nn4c3C)CC2)c1 | inconclusive: 16.9 µM [inhibitor, partial curve, poor fit]
43 | c1ccc2oc(SCc3cn4ccccc4n3)nc2c1 | active: 9.53 µM
44 | CC(C)Cc1nnc(NC(=O)CCC(=O)NC2CCCCC2)s1 | inactive
45 | COc1ccc(F)cc1S(=O)(=O)Nc1cc2c3c(c1)CC(=O)N3CCC2 | inactive
46 | CC1CCN(C(=O)Cn2c(=O)n(Cc3ccc4c(c3)OCO4)c(=O)c3ccccc32)CC1 | inconclusive: 23.9 µM [inhibitor, single point]
47 | CC(=O)c1cccc(NC(=O)c2cccc(S(=O)(=O)N(C)C)c2)c1 | inactive
48 | COc1cc(OC)cc(-c2nnc(SCc3cccnc3)o2)c1 | inactive
49 | C/C(=N\NC(=O)CSc1nc2ccccc2s1)c1cccnc1 | inactive
50 | Cc1ccc(C2CC(=O)n3nc(-c4ccc(Cl)cc4)nc3S2)cc1 (stereo unspecified) | inconclusive: 26.9 µM [inhibitor, partial curve, poor fit]
51 | Cc1ccc(CNC(=O)CCS(=O)(=O)c2cc3c4c(c2)CCN4C(=O)CC3)cc1 | inactive
52 | Cc1cccc(C(=O)Nc2ccc(C(=O)N3CCCCC3C)cc2)c1 (stereo unspecified) | inconclusive: 37.9 µM [inhibitor, single point]

Row | Structure (SMILES) | Potency
53 | COc1ccc(-c2ccc(SCc3ccccn3)nn2)cc1OC | inconclusive: 37.9 µM [inhibitor, partial curve, poor fit]
54 | COc1ccc(C2=NS(=O)(=O)N(C)C(C(=O)Nc3ccc(C(C)=O)cc3)=C2)cc1OC | inconclusive: 26.9 µM [inhibitor, partial curve, poor fit]
55 | CCCP(=O)(CC(=O)O)c1ccccc1 (stereo unspecified) | inactive
56 | Cc1ccc(CNc2ccc3c(c2)nc(C)n3C)cc1 | active: 4.26 µM
57 | COc1ccc(OC(C)C(=O)NC(C)c2ccccc2)cc1 (stereo unspecified) | inactive
58 | Oc1c(Cl)cc(Cl)cc1CNc1ccccn1 | inconclusive: 19 µM [inhibitor, partial curve, poor fit]
59 | Cc1sc(NC(=S)NC(=O)C2CCCCC2)c(C(N)=O)c1C | inactive
60 | COc1ccccc1NC(=O)C(C)OC(=O)c1cccc(-n2cnnn2)c1 (stereo unspecified) | inactive
61 | O=C(/C=C\c1ccco1)NC(=S)Nc1ccccc1O | inconclusive: 23.9 µM [inhibitor, partial curve]
62 | COc1cc(/C=C/c2ccc3cccc([N+](=O)[O-])c3n2)ccc1OCC(=O)O | active: 1.9 µM
63 | CCOc1c(Br)cc(C2C=C(C(=O)O)Nc3ncnn32)cc1OC (stereo unspecified) | inactive
64 | CC(C)(C)N=C1NN=C(c2cc3ccccc3o2)CS1 | active: 1.9 µM
65 | COc1ccc(NC(=O)CN(C)C(=O)c2ccc(COc3ccccc3)cc2)cc1 | inactive
66 | O=C(Nc1ccc2c(c1)CCCN2C(=O)c1cccs1)c1cccc(F)c1 | inconclusive: 23.9 µM [inhibitor, single point]
67 | CC1CCc2onc(C(=O)Nc3ccc(Cl)cc3)c2C1 (stereo unspecified) | inconclusive: 16.9 µM [inhibitor, partial curve, poor fit]
68 | COc1cccc(-c2nc(-c3ccc(Br)o3)no2)c1 | active: 1.35 µM and active: 675 nM
69 | CS(=O)(=O)c1ccc2nc(NC(=O)CN3C(=O)C4CC=CCC4C3=O)sc2c1 (stereo unspecified) | inconclusive: 23.9 µM [inhibitor, partial curve, poor fit]
70 | Cc1cccc(/N=C/c2c(O)ccc3oc4c(c23)CCCC4)n1 | inconclusive: 37.9 µM [inhibitor, partial curve, poor fit]
71 | N#C/C(=N\O)c1nc2ccccc2[nH]1 | inconclusive: 37.9 µM [inhibitor, partial curve, poor fit]
72 | COc1cccc(NC(=O)C2COc3ccccc3O2)c1 (stereo unspecified) | active: 26.9 µM
73 | Cc1ccc(-c2nc(CS(=O)CC(=O)NCCN3CCCCCC3)c(C)o2)cc1 (stereo unspecified) | inactive
74 | Cc1ccc(-c2cc(C(=O)NCc3ccccn3)no2)cc1 | active: 16.9 µM
75 | O=C(Nc1ccccn1)c1ccc2c(=O)n3c(nc2c1)CCCCC3 | active: 4.78 µM
76 | COc1ccc(S(=O)(=O)N(CC(=O)NCCSc2ccc(C)cc2)c2ccc(C)cc2)cc1 | inactive
